Screen size: about 310,000 compounds; about 2,200 (0.71%) showed an effect of 50% or more. The effect is printed as a negative number. Some of the results follow.
Target: human ether-à-go-go-related gene (hERG) potassium channel (human, UniProt Q12809)
Assay: primary screen, population patch clamp on CHO cells stably expressing hERG

Chain of human ether-à-go-go-related gene (hERG) potassium channel (Q12809 whole entry, looked up): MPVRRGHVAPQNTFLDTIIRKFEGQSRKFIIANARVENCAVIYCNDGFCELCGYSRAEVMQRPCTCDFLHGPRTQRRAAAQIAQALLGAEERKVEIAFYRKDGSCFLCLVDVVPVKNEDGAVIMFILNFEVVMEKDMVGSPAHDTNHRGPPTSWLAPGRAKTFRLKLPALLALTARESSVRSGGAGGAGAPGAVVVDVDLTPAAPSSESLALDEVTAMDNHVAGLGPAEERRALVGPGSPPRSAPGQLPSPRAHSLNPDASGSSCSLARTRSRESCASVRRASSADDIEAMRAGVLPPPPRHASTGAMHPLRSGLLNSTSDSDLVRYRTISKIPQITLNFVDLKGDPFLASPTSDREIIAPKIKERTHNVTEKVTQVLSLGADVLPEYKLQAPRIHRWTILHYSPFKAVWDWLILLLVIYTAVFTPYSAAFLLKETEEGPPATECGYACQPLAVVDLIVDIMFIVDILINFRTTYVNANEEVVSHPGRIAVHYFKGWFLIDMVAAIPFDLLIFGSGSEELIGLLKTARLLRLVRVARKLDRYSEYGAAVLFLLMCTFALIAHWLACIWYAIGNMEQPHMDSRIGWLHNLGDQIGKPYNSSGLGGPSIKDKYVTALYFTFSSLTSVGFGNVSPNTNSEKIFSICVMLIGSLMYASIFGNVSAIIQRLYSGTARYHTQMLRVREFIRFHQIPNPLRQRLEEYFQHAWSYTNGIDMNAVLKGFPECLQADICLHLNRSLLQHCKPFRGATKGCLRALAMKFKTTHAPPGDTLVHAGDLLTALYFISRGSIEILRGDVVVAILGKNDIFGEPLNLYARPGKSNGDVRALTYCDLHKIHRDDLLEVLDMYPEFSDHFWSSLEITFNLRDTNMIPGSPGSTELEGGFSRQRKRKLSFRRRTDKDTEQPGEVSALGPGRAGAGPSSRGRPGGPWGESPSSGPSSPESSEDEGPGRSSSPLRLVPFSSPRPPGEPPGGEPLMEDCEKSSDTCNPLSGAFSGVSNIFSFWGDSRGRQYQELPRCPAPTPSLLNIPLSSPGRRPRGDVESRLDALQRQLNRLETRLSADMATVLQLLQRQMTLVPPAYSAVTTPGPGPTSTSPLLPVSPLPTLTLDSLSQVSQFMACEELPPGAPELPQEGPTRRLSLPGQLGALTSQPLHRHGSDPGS

Row | Structure (SMILES) | hERG current change (%, negative = inhibition) at 1uM [%]
1 | Cc1cccc(CCN(Cc2cc3cccc(C)c3[nH]c2=O)C(=O)N2CCOCC2)c1 | 0.739
2 | COc1ccc(NC(=O)c2cc(-c3ccco3)nc3ccccc23)cn1 | 9.14
3 | CCc1nccn1S(=O)(=O)c1ccc2ccccc2c1 | 17.3
4 | CC(C)c1cc(C(=O)O)on1 | 1.61
5 | O=c1[nH]c2cc(Cl)c([N+](=O)[O-])nc2[nH]1 | 2.1
6 | COc1cccc(Nc2nc(-c3sc(NC(=O)c4ccccc4)nc3C)cs2)c1 | 16.3
7 | COc1ccccc1NC(=O)C(C)NS(=O)(=O)c1ccc(Cl)cc1 (centres unmarked) | 13.3
8 | CCc1c(C(=O)Nc2ccccc2)c(C)[nH]c(=S)c1C#N | 15.9
9 | Nc1nonc1-n1nnc(C(=O)N/N=C/c2cccnc2)c1CSc1ccc(Cl)cc1 | 8.68
10 | CC1CCN(S(=O)(=O)c2ccc(NC(=O)CCN3C(=O)C4CC=CCC4C3=O)cc2)CC1 (centres unmarked) | 5.27
11 | CCNCc1cc2cc(C)ccc2[nH]c1=O | 10.2
12 | Cc1ccc(-n2[nH]c(C)c(C=Nc3cc(C)ccn3)c2=O)cc1 | 7.39
13 | Cc1ccccc1NC(=O)c1ccc(NC(=O)c2ccco2)cc1 | 8.28
14 | CCC(=O)c1cn(CC(=O)Nc2c(C)cccc2C)c2ccccc12 | 14.4
15 | COc1cc(OC)cc(C(=O)Nn2cnnc2)c1 | 11.2
16 | CC(C)CNC(=O)c1ccccc1Oc1ccccc1 | -0.702
17 | CC(C)c1ccc(N(CC(=O)NC2CCCCC2)C(=O)CCC(=O)Nc2ccccn2)cc1 | 11.3
18 | C=CCn1c(SCC(=O)c2cccs2)nc2sc(CC)cc2c1=O | 7.02
19 | O=C(NNC(=O)C1CC(c2cccnc2)=NO1)Nc1cccc(F)c1 (centres unmarked) | -0.89

Row | Structure (SMILES) | hERG current change (%, negative = inhibition) at 1uM [%]
20 | NS(=O)(=O)c1ccc(NC(=S)N2CCN(C(=O)C3CCCO3)CC2)cc1 (centres unmarked) | 2.22
21 | CSCC[C@H](NC(=O)N1CCn2c1nc1ccccc12)C(=O)NCc1ccc(C)cc1 | 7.77
22 | Brc1ccsc1/C=N/Nc1ccccc1 | 17.5
23 | COc1cccc(-c2ccc3c(N)c(C(=O)NC4CC4)sc3n2)c1 | 18.6
24 | COc1cc(/C=C/C(=O)O)ccc1OCc1cnc(Cl)s1 | 13.5
25 | O=C(NC1CCCCCC1)C(=S)N1CCCC1 | 11.1
26 | Cc1cc(Br)cc2c(C(=O)Nc3c(C)n(C)n(-c4ccccc4)c3=O)cc(-c3cccs3)nc12 | 6.96
27 | O=[N+]([O-])c1ccc(O)c(-c2nn[nH]n2)c1 | 1.26
28 | Cc1c(N=Cc2cc3c(cc2[N+](=O)[O-])OCO3)cccc1[N+](=O)[O-] | 8.46
29 | O=c1c2c([nH]c3ccc(Br)cc13)CCCC2 | -0.599
30 | O=C(Nc1ccc(S(=O)(=O)Nc2ncccn2)cc1)c1ccc(S(=O)(=O)N2CCCC2)cc1 | 14.4
31 | O=C(COC(=O)c1cc([N+](=O)[O-])ccc1NCCO)Nc1ccc2c(c1)OCO2 | 3.51
32 | O=S(=O)(Nc1ccc(Cl)cn1)c1ccc(F)cc1 | 7.62
33 | CCOCCCNc1ccc(N2C(=O)C3CCCCC3C2=O)cc1[N+](=O)[O-] (centres unmarked) | 6.14
34 | O=S(=O)(Cc1ccccc1)NCC1CCCN(Cc2ccc(F)c(F)c2)C1 (centres unmarked) | -3.01
35 | CC1(C)C(C(=O)NCc2ccco2)C1(C)C | 6.33
36 | C[C@@H]1C[C@H]2[C@@H]3C[C@H](F)C4=CC(=O)C(Cl)=C[C@]4(C)[C@@]3(F)[C@@H](O)C[C@]2(C)[C@@]1(O)C(=O)CO | 1.82
37 | CC(=O)Nc1ccc(-c2nn[nH]n2)cc1 | 1.91
38 | CC(C)(C)C(=O)Nc1nnc(SCC(=O)Nc2ccc3c(c2)OCO3)s1 | 10.9

Row | Structure (SMILES) | hERG current change (%, negative = inhibition) at 1uM [%]
39 | CN(Cc1ccccc1)Cc1nc2c(c(=O)n(C)c(=O)n2C)n1CCc1ccccc1 | -8.44
40 | Cc1cc(NS(=O)(=O)c2ccc(NC(=O)Cc3ccc([N+](=O)[O-])cc3)cc2)no1 | 9.91
41 | COc1cccc(-n2c(CN3CCN(c4ccccn4)CC3)nc3ccc([N+](=O)[O-])cc3c2=O)c1 | -3.03
42 | CCn1c(SCC(=O)NC2CC2)nnc1-c1ccc(OC)cc1 | 20.5
43 | O=C(NCCCN1CCOCC1)c1ccc(S(=O)(=O)Nc2ccccc2)cc1 | 25.3
44 | CN1/C(=C\C(=O)COC(=O)c2ccc(O)cc2)C(C)(C)c2ccccc21 | 21.4
45 | CN1CCC(O)(c2ccccc2)C2CCCC21 (centres unmarked) | 10.2
46 | COc1ccc(NC(=O)Cn2nnc(C(=O)NCc3cccs3)c2N)c(OC)c1 | 13.2
47 | COc1ccc(S(=O)(=O)NCc2ccc(C(=O)N3CCN(c4ccccn4)CC3)cc2)cc1 | 0.714
48 | Nc1nnc(SCC(=O)NN2C(=O)NC3(CCCCC3)C2=O)s1 | 12.5
49 | Cc1cccc(NC(=O)CNC(=O)CN2C(=O)NC3(CCCCC3C)C2=O)c1C (centres unmarked) | 15.4
50 | COc1ccccc1N1CCN(C(=O)c2cccc(S(=O)(=O)N3CCCCCC3)c2)CC1 | -18.5
51 | Cc1ccc(Cl)cc1N1C(=O)CC(Sc2ncccn2)C1=O (centres unmarked) | 15.5
52 | CC(C)c1ccc(S(=O)(=O)N2CCN(C(C)C(=O)N3CCCC3)CC2)cc1 (centres unmarked) | 5.12
53 | CC1CC(C)CN(C(=O)c2cc(-c3ccncc3)nc3ccccc23)C1 (centres unmarked) | -1.84
54 | O=C(Nc1ccnn1C1CCN(C(=O)Cc2ccccc2F)CC1)C1CC1 | 14.3
55 | CC(C)C(=O)N(Cc1cc2ccccc2[nH]c1=O)C(C)C | -4.32
56 | COc1cccc(C(=O)NCCCNC(=O)c2cccc(OC)c2)c1 | 12.4

Source: PMC4336329 (PLoS ONE, 2015)
